# Test results as given in article PMC5836133.
# The other results are listed elsewhere or left out. At the low end of the ranking the order means little.
# System: T1, GST-NbGlk1(82-244)
# T1 sequence: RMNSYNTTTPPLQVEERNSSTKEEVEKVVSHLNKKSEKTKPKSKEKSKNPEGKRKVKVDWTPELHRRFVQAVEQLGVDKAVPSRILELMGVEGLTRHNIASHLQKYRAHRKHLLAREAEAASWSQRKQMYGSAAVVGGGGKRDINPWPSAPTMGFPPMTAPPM
# Assay: protein-binding microarray;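 also: rank-based score ranging −0.5 to +0.5 with E above 0.45 taken as significant binding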
# Conditions: NbGlk1 is a Golden2-like transcription factor of Nicotiana benthamiana; high values mean tight binding; most listed sequences are background and not binding sites; double strand, one strand shown
row,Sequence,binding signal
1,ACGCTTCG,-0.00731 E-score
2,CAAATCTG,0.43 E-score
3,ATAAGGTC,-0.17 E-score
4,AGGGAAAC,-0.00923 E-score
5,CAGAAACA,0.0737 E-score
6,AAATAAGG,0.08 E-score
7,AGCTACGG,-0.108 E-score
8,ACGTCACC,-0.0572 E-score
9,AAGGATCG,0.129 E-score
10,AGATGCGA,0.0577 E-score
11,AGGCGGTA,-0.127 E-score
12,AACGATTC,0.214 E-score
13,ATCATTCA,0.0496 E-score
14,AGGAAGCA,-0.0662 E-score
15,ACGTCTCC,-0.25 E-score
16,ACAGTGGG,-0.215 E-score
17,CACCTCTA,-0.204 E-score
18,AGGACTCA,-0.182 E-score
19,ACCACCCC,-0.137 E-score
20,ACAACTAG,-0.174 E-score
21,AGGTACCC,-0.24 E-score
22,AGCGCGCC,-0.192 E-score
23,CAGCCGTC,-0.231 E-score
24,AGATTGGA,0.154 E-score
25,ATCAAACA,0.0561 E-score

row,Sequence,binding signal
1,AACTGGCC,-0.106 E-score
2,AAATCGCT,0.295 E-score
3,ATGGGGAA,-0.024 E-score
4,AGATCGCT,0.346 E-score
5,AGCCTGAA,-0.155 E-score
6,AGCTGACC,-0.241 E-score
7,ACTGAGAG,-0.103 E-score
8,ATTATAAT,0.307 E-score
9,AATTACGA,0.239 E-score
10,AAGTCGGC,-0.161 E-score
11,AAAGAAGT,0.077 E-score
12,AAGCCAGA,-0.0963 E-score
13,AAAGAAAG,0.021 E-score
14,ATTCATCA,0.125 E-score
15,ACATGACG,-0.149 E-score
16,AATATACG,0.253 E-score
17,AAGTTGCT,-0.174 E-score
18,CAGCAAAC,0.0155 E-score
19,AATGCCAA,-0.15 E-score
20,ACACTCTA,0.0709 E-score
21,AAAATGTC,-0.0534 E-score
22,ATGGTTAA,0.074 E-score
23,ACGCCAAT,0.00469 E-score
24,AGCCGGAT,0.129 E-score
25,ACGTGTCC,-0.177 E-score

row,Sequence,binding signal
1,CACGTTCA,-0.179 E-score
2,AGACCGGG,-0.226 E-score
3,ACTTCCCA,-0.161 E-score
4,AGATGTGA,-0.0851 E-score
5,AGACGGGA,-0.0756 E-score
6,AAAAGAGA,0.00507 E-score
7,AACCTTCA,0.00171 E-score
8,AGTTCTTA,-0.0357 E-score
9,AGACTTTA,-0.0821 E-score
10,ATTAGCGC,-0.118 E-score
11,AGTATATG,0.114 E-score
12,AGAGGCAC,-0.175 E-score
13,AAGTTCCT,-0.176 E-score
14,ATCAATAG,0.157 E-score
15,ACTAGGAA,0.0624 E-score
16,CAGAATTC,0.234 E-score
17,AGCAATAC,0.167 E-score
18,AGCTGAGC,-0.114 E-score
19,ACTAGGTC,-0.274 E-score
20,CACGGCTA,-0.136 E-score
21,CACAGGAA,-0.0682 E-score
22,ACGTGCGC,-0.11 E-score
23,CAATGACG,-0.0953 E-score
24,AGGCCGAT,-0.0713 E-score
25,AACCATCC,-0.117 E-score

row,Sequence,binding signal
1,AATGATGA,0.0583 E-score
2,AATCTTAC,0.375 E-score
3,ATCTTCCG,0.316 E-score
4,AGTAAGAA,0.214 E-score
5,CACGCAGC,-0.217 E-score
6,ACGGTGCA,-0.0251 E-score
7,ATAGATAC,0.26 E-score
8,ACCACTGG,-0.207 E-score
9,ACCTAAAC,-0.0643 E-score
10,CACGACGG,-0.238 E-score
11,CACTGATG,-0.0898 E-score
12,ATCTCCGC,0.293 E-score
13,AGCGAGAC,-0.0553 E-score
14,AAACCATC,-0.128 E-score
15,ACGATCGC,0.252 E-score
16,AAAGCATG,-0.0603 E-score
17,ATAATGAT,0.14 E-score
18,ACCAAGAA,0.0219 E-score
19,ATACCATC,0.0206 E-score
20,AATATGCA,0.16 E-score
21,ATTGCTCG,0.0577 E-score
22,AGCTTCCG,-0.131 E-score
23,AGAAGCAT,-0.0575 E-score
24,AATCAGCA,0.322 E-score
25,AGCTGGAG,-0.177 E-score

row,Sequence,binding signal
1,ATTGGGGC,-0.0369 E-score
2,CACCGGCC,-0.193 E-score
3,ACCTCGCT,-0.241 E-score
4,ACACAGTC,-0.098 E-score
5,AACTTAGG,-0.0227 E-score
6,ACCTACCC,-0.0568 E-score
7,AAGACAAG,-0.054 E-score
8,ACAATTGA,0.0791 E-score
9,AGTCTCTG,-0.0468 E-score
10,AGCAATTA,0.0438 E-score
11,AAAGGTTC,-0.0213 E-score
12,CAAGCCTA,-0.143 E-score
13,AAGCAATA,0.111 E-score
14,AGGCAGTA,-0.0286 E-score
15,AAGTACGT,-0.041 E-score
16,ACGTCTAC,-0.216 E-score
17,AAACCACT,0.0141 E-score
18,ACATGATG,-0.0786 E-score
19,AATGAAGG,-0.0153 E-score
20,AAGCAGAC,-0.0365 E-score
21,ATCGAAAT,0.387 E-score
22,AACTAAGT,-0.116 E-score
23,CAGCGCCC,-0.252 E-score
24,ATGGGTTA,-0.023 E-score
25,AGCCCCCT,-0.324 E-score

row,Sequence,binding signal
1,AGCCAAGA,-0.0527 E-score
2,AGTGTTAC,-0.0537 E-score
3,AGCTGAAT,-0.1 E-score
4,ACCGAACG,-0.108 E-score
5,ACCCCTTA,-0.0928 E-score
6,AATTCTGC,0.204 E-score
7,ATTAATGG,-0.0227 E-score
8,AGTGGCGA,0.0591 E-score
9,ACCGGAGA,0.0207 E-score
10,ATAGTGTC,-0.0267 E-score
11,AGAGTTGG,-0.129 E-score
12,ATCAACTA,0.088 E-score
13,AACGAGCC,-0.189 E-score
14,ACTTGGAG,-0.154 E-score
15,CACTGGAG,-0.105 E-score
16,ACACACAT,-0.0292 E-score
17,ATGAGGTG,-0.0248 E-score
18,ACGTTAGC,-0.176 E-score
19,AACTCTAG,-0.106 E-score
20,AGATACGC,0.422 E-score
21,AGGTGCAA,-0.0203 E-score
22,AAAGAGCA,-0.0635 E-score
23,AGCATCCA,-0.0946 E-score
24,AGCGTACT,-0.0933 E-score
25,CACGCTCA,-0.17 E-score

row,Sequence,binding signal
1,ACAAATGG,-0.1 E-score
2,AATATCTG,0.423 E-score
3,AAGGTTGC,-0.218 E-score
4,ACGTTCAC,-0.12 E-score
5,CACCCCAA,-0.16 E-score
6,CAGAGACC,-0.219 E-score
7,CACTCTTC,-0.175 E-score
8,ATAAGGAT,0.22 E-score
9,CACTAGCG,-0.168 E-score
10,ACTCGGGC,-0.271 E-score
11,AAGAACCC,-0.162 E-score
12,AACTGGGC,-0.284 E-score
13,CACCGGTA,-0.0313 E-score
14,ACGTCGTG,-0.0132 E-score
15,AGGCTGAC,-0.163 E-score
16,AGATATCA,0.434 E-score
17,AGTCACAT,-0.13 E-score
18,AAGTTGCC,-0.168 E-score
19,AATAAACC,-0.162 E-score
20,AAAGTTAT,-0.0306 E-score
21,AGCTGTGC,-0.166 E-score
22,AGCGAGAA,-0.0484 E-score
